Literature values as cited in US7138231B2 (priority 2000, dated 2006).

Key:
HIV-1 = details: cited from earlier work
HIV-1 integrase = HIV-1 integrase (Human immunodeficiency virus type 1 group M subtype B, UniProt P04585); details: cited from earlier work

O=C(O)C(=O)CC(=O)c1cccn1Cc1ccc(F)cc1 [L-731, 988]
inhibition of HIV-1 replication in vitro (HIV-1): inhibit | inhibition of strand-transfer activity (HIV-1 integrase): specifically inhibit
